Experimental data published in article PMC4336329 (PLoS ONE, 2015).
Hit rate of the full screen: of about 310,000 compounds, about 2,200 (0.71%) showed an effect of 50% or more. Effects have a minus sign here. Some of the results follow.

These compounds were tested against human ether-à-go-go-related gene (hERG) potassium channel (human, UniProt Q12809) (assay: primary screen, population patch clamp on CHO cells stably expressing hERG).
human ether-à-go-go-related gene (hERG) potassium channel, sequence (Q12809 whole entry, looked up): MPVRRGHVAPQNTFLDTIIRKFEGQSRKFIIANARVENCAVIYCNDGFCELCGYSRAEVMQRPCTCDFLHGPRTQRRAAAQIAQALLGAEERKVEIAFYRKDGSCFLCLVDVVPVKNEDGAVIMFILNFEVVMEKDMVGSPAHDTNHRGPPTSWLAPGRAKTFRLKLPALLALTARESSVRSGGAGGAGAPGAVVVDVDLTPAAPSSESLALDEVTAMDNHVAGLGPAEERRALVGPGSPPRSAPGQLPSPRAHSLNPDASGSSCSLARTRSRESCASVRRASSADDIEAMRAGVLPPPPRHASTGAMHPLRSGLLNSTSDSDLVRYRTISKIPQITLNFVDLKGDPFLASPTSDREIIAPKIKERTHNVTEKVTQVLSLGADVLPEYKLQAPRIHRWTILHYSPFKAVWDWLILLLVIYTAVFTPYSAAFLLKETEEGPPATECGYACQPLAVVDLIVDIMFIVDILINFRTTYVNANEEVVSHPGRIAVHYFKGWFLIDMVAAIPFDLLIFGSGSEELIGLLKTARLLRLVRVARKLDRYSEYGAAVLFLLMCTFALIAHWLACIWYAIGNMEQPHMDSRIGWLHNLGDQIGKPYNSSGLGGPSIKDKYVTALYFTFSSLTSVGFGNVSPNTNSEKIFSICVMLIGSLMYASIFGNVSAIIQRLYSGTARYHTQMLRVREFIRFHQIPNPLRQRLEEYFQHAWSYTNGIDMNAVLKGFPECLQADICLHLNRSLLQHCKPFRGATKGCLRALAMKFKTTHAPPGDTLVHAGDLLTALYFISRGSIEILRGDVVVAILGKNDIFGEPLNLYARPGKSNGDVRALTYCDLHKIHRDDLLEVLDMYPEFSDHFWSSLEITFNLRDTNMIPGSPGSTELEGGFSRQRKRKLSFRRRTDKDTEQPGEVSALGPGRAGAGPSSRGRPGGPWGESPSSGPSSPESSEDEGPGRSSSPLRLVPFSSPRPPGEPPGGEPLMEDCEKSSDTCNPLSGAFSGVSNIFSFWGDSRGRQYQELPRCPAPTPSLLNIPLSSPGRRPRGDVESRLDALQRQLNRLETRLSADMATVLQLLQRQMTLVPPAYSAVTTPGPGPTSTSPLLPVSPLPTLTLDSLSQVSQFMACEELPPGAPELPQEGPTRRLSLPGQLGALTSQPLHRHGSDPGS
In the case of O=c1c2ccccc2nnn1COc1ccc(Cl)cc1Br, the “hERG current change (%, negative = inhibition) at 1uM” value is reported as 8.33%. In the case of COCCN(C(=O)CN1CCc2ccccc2C1)c1c(N)n(Cc2ccccc2)c(=O)[nH]c1=O, the “hERG current change (%, negative = inhibition) at 1uM” value is reported as -17.4%. CCOCCCNC(=O)C(NC(=O)Cc1cccs1)c1ccc(Cl)cc1 (stereo not drawn) was tested, and the “hERG current change (%, negative = inhibition) at 1uM” value was 12.6%. NNC(=O)c1cccn(Cc2cccc(C(F)(F)F)c2)c1=O was tested, and the “hERG current change (%, negative = inhibition) at 1uM” value was 12.6%. With Cc1ccc(/C=N/NC(=O)CSc2nc3ccccc3n2C)s1 the “hERG current change (%, negative = inhibition) at 1uM” value was 12.4%. With CC1CCN(C2=C(NS(=O)(=O)c3ccc(Cl)cc3)C(=O)c3ccccc3C2=O)CC1 the “hERG current change (%, negative = inhibition) at 1uM” value was 3.98%. Cc1cccc(NC(=O)c2nc[nH]c2C(=O)Nc2ccccc2[N+](=O)[O-])c1 was tested, and the “hERG current change (%, negative = inhibition) at 1uM” value was 2.49%. With Cc1ccc(/C(N)=N/OC(=O)CCC2CCCCC2)cc1 the “hERG current change (%, negative = inhibition) at 1uM” value was 2.32%. O=C(Nc1ccc(C(=O)O)cc1)/C(=C\c1ccc2c(c1)OCO2)NC(=O)c1ccc(Br)o1 was tested, and the “hERG current change (%, negative = inhibition) at 1uM” value was 11.8%. O=C(c1cc(-c2ccccn2)nc2ccc(Br)cc12)N1CCN(S(=O)(=O)c2ccccc2)CC1 was tested, and the “hERG current change (%, negative = inhibition) at 1uM” value was 16.4%. For COc1ccccc1CN1Cc2cccc3c2[C@@H](CC1=O)[C@H](O)[C@H](O)C3, the “hERG current change (%, negative = inhibition) at 1uM” value was -7.92%. With Cc1ccc(OCC(=O)NCc2cccs2)cc1 the “hERG current change (%, negative = inhibition) at 1uM” value was 5.36%. For CN(C(=O)COC(=O)c1ccccc1Nc1ccccc1)C1CCS(=O)(=O)C1 (stereo not drawn), the “hERG current change (%, negative = inhibition) at 1uM” value was 4.88%. With CCN1/C(=C\C=C2\C(=O)N(C)C(=S)N2C)Sc2ccccc21 the “hERG current change (%, negative = inhibition) at 1uM” value was 18.2%. With CN(C(=O)c1cccc(C#N)c1)c1nnc(-c2cnccn2)s1 the “hERG current change (%, negative = inhibition) at 1uM” value was 2.69%. With COC(=O)c1sc(NC(=O)c2ccc([N+](=O)[O-])o2)c(C#N)c1C the “hERG current change (%, negative = inhibition) at 1uM” value was 12.6%. For O=C(Nc1cc(C(F)(F)F)ccc1F)C1CCCC1, the “hERG current change (%, negative = inhibition) at 1uM” value was 14.2%. CN1CCN(CCCN2c3ccccc3Sc3ccc(S(=O)(=O)N(C)C)cc32)CC1.CS(=O)(=O)O was tested, and the “hERG current change (%, negative = inhibition) at 1uM” value was -20.9%. O=C(CN1C(=O)CCC1=O)Nc1nc(-c2cccs2)cs1 was tested, and the “hERG current change (%, negative = inhibition) at 1uM” value was 3.49%. With Cc1ccc(OCc2ccc(C(=O)N3CCCC3)o2)c([N+](=O)[O-])c1 the “hERG current change (%, negative = inhibition) at 1uM” value was -6.76%. For Oc1ccc(/C=N/Nc2ccc(C(F)(F)F)cn2)c(O)c1, the “hERG current change (%, negative = inhibition) at 1uM” value was 14.8%. With Cc1ccc(OCc2cc(C(=O)N(C)CCc3ccccn3)no2)cc1C the “hERG current change (%, negative = inhibition) at 1uM” value was 0.159%. COc1ccc2nc(SCC(=O)N3CCN(c4ccc(F)cc4)CC3)c(C#N)cc2c1 was tested, and the “hERG current change (%, negative = inhibition) at 1uM” value was -3%. C=CCN1C(=O)c2ccc(C(=O)N3CCN(S(=O)(=O)c4ccccc4Br)CC3)cc2C1=O was tested, and the “hERG current change (%, negative = inhibition) at 1uM” value was -0.0382%. O=C(CCc1ccccc1)NC1C2CC3CC(C2)CC1C3 (stereo not drawn) was tested, and the “hERG current change (%, negative = inhibition) at 1uM” value was -2.16%. c1cncc(C2CCCCN2)c1 (stereo not drawn) was tested, and the “hERG current change (%, negative = inhibition) at 1uM” value was 9.06%. In the case of COC(=O)C1CCN(C(=O)Nc2ccc(OC)cc2)CC1, the “hERG current change (%, negative = inhibition) at 1uM” value is reported as 2.84%. In the case of Oc1ccc(/C=N/Nc2ccnc3cc(Cl)ccc23)cc1O, the “hERG current change (%, negative = inhibition) at 1uM” value is reported as 9.67%. In the case of COC(=O)c1ccc(C2/C(=C(/O)c3ccc(Cl)cc3)C(=O)C(=O)N2C2CCS(=O)(=O)C2)cc1 (stereo not drawn), the “hERG current change (%, negative = inhibition) at 1uM” value is reported as 6.83%. COc1ccc(N2C(=O)CC(c3ccc(OC(C)C)cc3)C2=O)cc1 (stereo not drawn) was tested, and the “hERG current change (%, negative = inhibition) at 1uM” value was 7.95%. In the case of CCOC(=O)Cc1csc(SCc2nc3ccccc3c(=O)[nH]2)n1, the “hERG current change (%, negative = inhibition) at 1uM” value is reported as -7.14%. With O=C1C=C(c2ccc(-c3ccccc3)c(F)c2)C[C@@H](c2ccc3c(c2)OCO3)C1 the “hERG current change (%, negative = inhibition) at 1uM” value was -2.34%. With CCCCOc1ccc(C(=O)Nc2ccc(N3CCN(C)CC3)cc2)cc1 the “hERG current change (%, negative = inhibition) at 1uM” value was 3.3%. For Cc1ccc(-n2ncc3c2CC(C)(C)CC3NC(=O)CCCN2CCCCC2=O)cc1 (stereo not drawn), the “hERG current change (%, negative = inhibition) at 1uM” value was 7.71%. In the case of O=C(O)/C=C/C(=O)NC1CCCCCCCCCCC1, the “hERG current change (%, negative = inhibition) at 1uM” value is reported as 10.4%. In the case of COc1cc(C)nc(N2CCCC(C(=O)Nc3cc(Cl)ccc3OC)C2)n1 (stereo not drawn), the “hERG current change (%, negative = inhibition) at 1uM” value is reported as 9.02%. With CN1CCN(C(=S)NC(=O)/C=C/c2ccccc2Cl)CC1 the “hERG current change (%, negative = inhibition) at 1uM” value was 12.2%. For Brc1ccc(C2N3CCCN23)cc1 (stereo not drawn), the “hERG current change (%, negative = inhibition) at 1uM” value was 9.25%. For Cc1ccnc(NC(=O)c2cccc3ccccc23)c1, the “hERG current change (%, negative = inhibition) at 1uM” value was 6.02%. With CC(C)Nc1nc(Cl)nc(NN(C)c2nc(N(C)C)nc(N(C)C)n2)n1 the “hERG current change (%, negative = inhibition) at 1uM” value was 14.3%. With COc1ccc(C)cc1NC(=O)CCN1CCN(c2ccccc2)CC1 the “hERG current change (%, negative = inhibition) at 1uM” value was 3.12%. For Cc1ccc(S(=O)(=O)N(CC(=O)NCC2CCCO2)Cc2cccc(C)c2)cc1 (stereo not drawn), the “hERG current change (%, negative = inhibition) at 1uM” value was -22.5%. For Cc1ccc(C2CC2/C(=N/O)c2ccc(F)cc2)cc1 (stereo not drawn), the “hERG current change (%, negative = inhibition) at 1uM” value was 22.3%. With CCOP(=S)(OCC)SCC(=O)NC(C)(CC)C(=O)O (stereo not drawn) the “hERG current change (%, negative = inhibition) at 1uM” value was 15.4%. With CCN(CC)CC(=O)N1CCCC(N2CCN(c3cccc(C(F)(F)F)c3)CC2)C1 (stereo not drawn) the “hERG current change (%, negative = inhibition) at 1uM” value was 9.29%.
